# PubChem BioAssay (NCI)
#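 Protocol summary: plate cells (96-well), add compound at 5 concentrations, incubate 48 h, interpolate endpoints linearly. Here, GI50 denotes the concentration required for 50% inhibition of growth. TGI: concentration producing complete growth inhibition.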
# Test system: NCI-H322M lung
# Assay: growth of human tumour cells (NCI), 48 h
SMILES,GI50 [µM],TGI [µM]
COc1ccsc1/C=N/NC(=O)c1[nH]c2ccc(Br)cc2c1-c1ccccc1,0.809,> 78.2
COc1cc(-c2ccc3ncnc(N4CCc5ccc(Cl)cc54)c3c2)cnc1Cl,2.55,11.8
CC[C@]12C=CCN3CC[C@@]4(c5ccc(OC)cc5N(C)[C@H]4[C@@](O)(C(=O)OC)[C@@H]1OC(=O)CCCC[P+](c1ccc(OC)cc1)(c1ccc(OC)cc1)c1ccc(OC)cc1)[C@@H]32,2.79,11.1
CNS(=O)(=O)N1CCc2c(Br)c3c(c(OC)c2C1CCc1ccccc1)OCO3 (stereo not drawn),18.3,> 100
